# Assay results: the supplement of paper PMC9334596
# “And” between values parts separate entries of the source, which are not always exact repeats. Equal entries are not always repeated. The full ranking holds about 5,300 compounds; the median of “PER2::LUC luminescence relative to vehicle control” is about 0.96, and the highest 2% start at about 1.3. This is one part of the list.
# Tested on: mPer2Luc MEF
# Assay: PER2::LUC luminescence relative to vehicle control (fold of vehicle); higher = higher PER2::LUC reporter signal
# Details: 10 µM
# How it was run: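 In 384-well plates, ~3000 mPer2Luc reporter mouse embryonic fibroblasts per well were cultured in DMEM with 10% FBS at 37 °C and 5% CO2 for 48 h before compounds from commercial libraries were added at 10 μM. ONE-Glo luciferase readings were taken 24 h and 30 h after treatment. Each value is PER2::LUC luminescence given as fold of vehicle control.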
Structure (SMILES),PER2::LUC luminescence (time after treatment 24 h),PER2::LUC luminescence (time after treatment 30 h)
CSc1nc(N)c2ncn([C@@H]3O[C@H](COP(=O)(O)OP(=O)(O)OP(=O)(O)O)[C@H](O)C3O)c2n1 (some centres undefined),1.05,1.1
C[C@H](C[C@H](N)C(=O)O)C(=O)O,1.07,0.884
CC(C)=CCC/C(C)=C/CC/C(C)=C/CC/C(C)=C/CC1=C(C)C(=O)c2ccccc2C1=O,1.01 and 0.917,1.08 and 0.933
COc1cc(O)c(C)c(O)c1,1.21,1.03
OCC(O)C(O)C(O)C(O)C(O)CO (centres undefined),1.08,0.998
NOCC(=O)O,0.961,1.11
COc1cc2ncnc(Nc3ccc(O)cc3)c2cc1OC,0.787 and 0.711,0.688 and 0.622
C[C@H](CCC(=O)O)[C@H]1CC[C@H]2[C@@H]3CC[C@@H]4CCCC[C@]4(C)[C@H]3CC[C@]12C,1.01,1.2
C[C@]12CC[C@@H]3c4ccc(O)cc4CC[C@H]3[C@@H]1C[C@H](O)[C@@H]2O,1.07,0.987
O=C1CC2(CCCC2)CC(=O)N1CCNCC1COc2ccccc2O1 (centres undefined),1.1 and 1.05,0.987 and 0.887
CCCCCCCC(=O)CCc1ccc(O)c(OC)c1,1.04,0.901
CC(=O)N[C@@H](Cc1ccccc1)C(=O)O,1.02,0.924
CO/N=C(\C(=O)N[C@@H]1C(=O)N2C(C(=O)O)=C(C[N+]3(C)CCCC3)CS[C@H]12)c1csc(N)n1,0.978,0.948
CCOC(=O)[C@H](CCc1ccccc1)N[C@@H](C)C(=O)N1CCC[C@H]1C(=O)O,1.28 and 0.941,0.823 and 1.04
Cn1nnnc1SCC1=C(C(=O)O)N2C(=O)[C@@H](NC(=O)[C@H](OC=O)c3ccccc3)[C@H]2SC1,0.886,1.12
COc1ccc(C(=O)c2ccccc2C(=O)O)c(O)c1,1.19,0.841
Cc1nc(N)sc1-c1ccnc(Nc2ccc(N3CCOCC3)cc2)n1,0.517,0.765
CCOc1ccc(C(=O)c2ccc(O)c(O)c2O)cc1,0.963,1.08
C[C@]12CC[C@@H]3c4ccc(O)cc4CC[C@H]3[C@@H]1C[C@@H](O)[C@@H]2O,0.915,0.96
CN(C)CCCO[C@@H]1[C@H]2OC(C)(C)O[C@H]2O[C@@H]1[C@H](O)CO,1.16,1.11
Cc1cccc2c3c(ccc12)C1=C(C(=O)C3=O)[C@@H](C)CO1,0.814,0.857

Structure (SMILES),PER2::LUC luminescence (time after treatment 24 h),PER2::LUC luminescence (time after treatment 30 h)
C[C@@H]1CN(CC(=O)Nc2ccc3c(c2)Cc2cccc(-c4cc(=O)cc(N5CCOCC5)o4)c2S3)C[C@H](C)O1,0.479,0.487
CCC[C@H](NC(=O)[C@@H]1[C@H]2CCC[C@H]2CN1C(=O)[C@@H](NC(=O)[C@@H](NC(=O)c1cnccn1)C1CCCCC1)C(C)(C)C)C(=O)C(=O)NC1CC1,0.895,0.882
CCC(C(=S)O[C@]12CCC[C@H](CC1)N2C)c1ccccc1 (some centres undefined),0.715,0.77
Cc1noc(NS(=O)(=O)c2ccc(N)cc2)c1C,0.851,1.06
CCc1cccc2c3c([nH]c12)C(CC)(CC(=O)O)OCC3 (centres undefined),1.02,1.11
CCCCC(=O)O[C@]1(C(=O)CO)CC[C@H]2[C@@H]3CCC4=CC(=O)CC[C@]4(C)[C@H]3[C@@H](O)C[C@@]21C,0.848,1.06
CC(=O)N1CCN(CCOc2ccc(C3CCN(C4=Nn5c(nnc5C(F)(F)F)CC4)CC3)cc2)CC1,0.415,0.434
O=C1N=C(N2CCOCC2)CN1c1ccc(Cl)cc1,1.13,1.15
C=CC(=O)N1CCC[C@@H](n2nc(-c3ccc(Oc4ccccc4)cc3)c3c(N)ncnc32)C1,0.757,0.558
O=C(O)c1ccccc1C(=O)Nc1ccc(-c2ccccc2)cc1,1.14,1.05
CC(Oc1c(Cl)cccc1Cl)C1=NCCN1 (centres undefined),0.875,0.888
CC1=C(CC(=O)O)c2cc(F)ccc2/C1=C\c1ccc([S+](C)[O-])cc1 (centres undefined),0.878,0.879
C=CC(=O)Nc1ccc2ncnc(Nc3ccc(OCc4cccc(F)c4)c(Cl)c3)c2c1,0.392,0.325
CO[C@H]1[C@H](O)[C@@H](O)[C@H](O)[C@H](O)[C@H]1O,1.11,1.03
CN(C)CCC(c1ccc(Br)cc1)c1ccccn1 (racemic),0.867,0.672
Cc1ccccc1N1C(=O)c2cc(S(N)(=O)=O)c(Cl)cc2NC1C (centres undefined),0.886,0.885
CCCn1c(=O)c2[nH]c(-c3ccc(S(=O)(=O)O)cc3)nc2n(CCC)c1=O,1.06,0.998
Cc1cc(-n2c(=O)[nH]c(=O)n(C)c2=O)ccc1Oc1ccc(SC(F)(F)F)cc1,0.894,0.751
O=C1N(c2ccccc2)c2ccccc2C1(Cc1ccncc1)Cc1ccncc1,0.547 and 0.987,0.86 and 1.15
[I-].[K+],1.07,1.05
CC(C)COC(=O)c1ccc(N)cc1,1.34,1.43
